Data from article PMC5175582, “The Functions of the A1A2A3 Domains in Von Willebrand Factor Include Multimerin 1 Binding” (Thrombosis and Haemostasis, 2016).

Target: T1, Biotin-labelled MMRN1 (human, UniProt Q13201 20-1228, biotin (sites not given))
T1 construct: multimerin 1 (MMRN1), human; recombinant; Same protein as m1, biotin-labelled for SPR; Homopolymer; also called MMRN1-coated sensor chips; biotin-labelled MMRN1 (immobilised on streptavidin-coated sensor chips)
T1 sequence (looked up): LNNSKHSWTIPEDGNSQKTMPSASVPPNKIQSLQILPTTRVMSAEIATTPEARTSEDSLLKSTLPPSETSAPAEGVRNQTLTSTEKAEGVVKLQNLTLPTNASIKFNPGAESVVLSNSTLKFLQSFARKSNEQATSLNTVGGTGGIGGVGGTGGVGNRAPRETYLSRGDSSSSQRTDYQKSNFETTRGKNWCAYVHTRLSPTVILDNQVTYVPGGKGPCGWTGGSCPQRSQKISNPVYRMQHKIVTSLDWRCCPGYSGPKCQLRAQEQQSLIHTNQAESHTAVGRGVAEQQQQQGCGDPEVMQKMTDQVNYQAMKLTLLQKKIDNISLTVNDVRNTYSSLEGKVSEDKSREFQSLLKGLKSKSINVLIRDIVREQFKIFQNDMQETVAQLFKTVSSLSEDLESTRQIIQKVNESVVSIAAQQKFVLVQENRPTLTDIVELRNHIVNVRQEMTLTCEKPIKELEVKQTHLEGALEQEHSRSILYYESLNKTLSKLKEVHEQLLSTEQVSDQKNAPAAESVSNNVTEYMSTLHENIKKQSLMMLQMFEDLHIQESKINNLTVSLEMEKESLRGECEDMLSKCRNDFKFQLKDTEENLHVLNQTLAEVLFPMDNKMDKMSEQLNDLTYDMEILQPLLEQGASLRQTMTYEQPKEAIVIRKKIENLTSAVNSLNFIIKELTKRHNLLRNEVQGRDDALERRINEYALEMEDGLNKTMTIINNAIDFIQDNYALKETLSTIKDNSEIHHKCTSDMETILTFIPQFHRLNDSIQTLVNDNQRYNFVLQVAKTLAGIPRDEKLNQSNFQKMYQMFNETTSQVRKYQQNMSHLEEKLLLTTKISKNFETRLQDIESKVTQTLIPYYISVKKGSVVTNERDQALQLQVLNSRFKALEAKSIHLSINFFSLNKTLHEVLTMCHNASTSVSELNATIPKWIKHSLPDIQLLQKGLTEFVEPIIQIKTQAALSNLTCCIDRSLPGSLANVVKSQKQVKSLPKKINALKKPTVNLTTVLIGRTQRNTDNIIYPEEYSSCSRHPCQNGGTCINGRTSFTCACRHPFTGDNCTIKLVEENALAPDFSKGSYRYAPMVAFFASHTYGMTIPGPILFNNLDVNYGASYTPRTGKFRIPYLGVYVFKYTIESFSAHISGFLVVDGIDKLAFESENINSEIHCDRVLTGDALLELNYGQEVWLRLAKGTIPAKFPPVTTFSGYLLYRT
Assay: SPR; BIAcoreX; biotin-labelled MMRN1 immobilised on streptavidin-coated sensor chips (500–1000 RU); VWF A domains perfused in HEPES-Tyrode running buffer with 0.005 % P-20; two-state conformational model for A1A2A3 and A1, 1:1 Langmuir model for A3; apparent affinity
Conditions: both partners purified

B1: Monomeric VWF A1A2A3 (domain or fragment)
chain: not shown
Question: How did the Kd turn out when B1 was run?
Answer: 2 nM

B2: Monomeric VWF A3 domain (domain or fragment)
chain: not shown
Question: For B2, which Kd is on record?
Answer: 229 nM

Question: And the koff?
Answer: 0.0018 s⁻¹

Question: What about the kon of the same binder?
Answer: 8800 M⁻¹ s⁻¹
